# Measured values published in the RNAGym collection of RNA variant scans (doi:10.1093/nar/gkz1192).
# Read counts are not given, so values of variants with three or more changes are uncertain.
# B1: CPEB3 Ribozyme (parent)
# chain: UAACAGGGGGCCACAGCAGAAGCGUUCACGUCGCAGCCCCUGUCAGAUUCUGGUGAAUCUGCGAAUUCUGCUGUAUAUCUC
# Variants of: B1
# Experiment: self-cleavage, relative activity (ratio to wild type); higher = more cleavage; in vitro, sequencing
# Procedure, shortened: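 Relative activity compares each variant's cleaved/total read fraction with that of the unmutated ribozyme. To get these fractions, barcoded CPEB3 ribozyme libraries from rounds of error-prone PCR were transcribed with T7 RNA polymerase for 5 hours at 37°C and then given 15 min of DNase I treatment before EDTA was added. The RNAs were reverse transcribed with template switching and sequenced on Illumina, and DNA sequencing linked barcodes to variants. A minimum of 5 reads applied, and three batches were averaged.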
row,Variant,self-cleavage
1,UAACAGGGGGCCACAGCAGGAGCGUUCACGUCGCAGCCCCUGUCAGAUUCUGGUGAAUCUGCGGAUUCCGCUGUAUAUCUC,0.19
2,UAACAGGGGGCCACAGCAGGAGCGUUCUCGUCGCAGCCCCUGUCAGAUUCUGGUGAGUCCGCGAAUUCUGCUGUAUAUCUC,0.21
3,UAACAGGGGGCCACAGCAGGAGCGUUCGCGUCGCAGCCCCUGUCAGAUUCAGGUGAAUCUGCGAAUUCUGCUGUAUAUCUC,0.31
4,UAACAGGGGGCCACAGCAGGAGCGUUCACGUCGCAGCCCCUGUCAGAUUCUGGUGAAUCUGCGGGUUCUGCCGUAUAUCUC,0.24
5,UAACAGGGGGCCACAGCAGGAGCGUUCACGUCGCAGCCCCUGUCAGAUUCUGGUGGAUUUGCGAAUUCUGCUGUAUAUCUC,0.37
6,UAACAGGGGGCCACAGCAGGAGCGUUCACGUCGCAGCCCCUGUCAGGUUCUGGUGUAUCUGCGAAUUCUGCUGUAUAUCUC,0.47
7,UAACAGGGGGCCACAGCAGGAGCGUUCACGUUGCAGCCCCUGUCAGAUUCUGGUGAAUCUGCGAAUUCUGCAGUAUAUCCC,0.25
8,UAACAGGGGGCCACAGCAGGAGCGUUCUCGUCGCAGCCCCUAUCAGAUUCUGGUGAACCUGCGAAUUCUGCUGUAUAUCUC,0.18
9,UAACAGGGGGCCACAGCAGGAGCGUUCUCGUCGCAGCCCCUGUCAGAUUCUGGUGGAUCUGCGAAUUCUGCUGUAUAUCUC,0.51
10,UAACAGGGGGCCACAGCAGGAGCGUUCACGUCGCUGCCCCUGUCAGAUUCUGGUGAAUCUGCGGAUUCUGCUGUAUAUCUC,0.27
11,UAACAGGGGGCCACAGCAGGAGCGUUCACGUCGAAGCCCCUGUCAGAUUCUGGUGAAUCUGCGAAUCAUGCUGUAUAUCUC,0.13
12,UAACAGGGGGCCACAGCAGGAGCGUUCACGUCGCAGCCCCUGUCAGAUUCUGGUGAGUCCGCGAUUUCUGCUGUAUACCUC,0.12
13,UAACAGGGGGCCACAGCAGGAGCGUUCACGUUGCAGCCCCUGUCUGAUUCUGGUGAAUCUGUGAAUUCUGCGGUAUAUCUC,0.04
14,UAACAGGGGGCCACAGCAGGAGCGUUCACGUCGCAGUCCCUGUCAGAUUCUGGUGAAUCUGCGAGUUCUGCUGUAUAUCUC,0.38
15,UAACAGGGGGCCACAGCAGGAGCGUUCACGUUGCAGCCCCUGUCAGAUUCUGGUGAAUCUGCGAGUUCUGCUGUAUAUCUC,0.06
16,UAACAGGGGGCCACAGCAGGAGCGUUCACGUCGCGGCUCCUGUCAGGUUCUGGUGAAUCUGCGAAUUCUGCUGUAUAUCUC,0.64
17,UAACAGGGGGCCACAGCAGGAGCGUUCUAGACGCAGCCCCUGUCAGAUUCUGGUGAAUCAGCGAAUUCUGCUGUAUGUCUC,0.05

row,Variant,self-cleavage
1,UAACAGGGGGCCACAGCAGGAGCGUUCACGUCGCUGCCCCUGUCAGAUUCAGGUGAAUCUGCGAAUUCUGCAGUACAUCUC,0.13
2,UAACAGGGGGCCACAGCAGGAGUGUUUGCGACGCAGCCCCUGUCAGAUUCUGGUGAACCUGCGAAUUCUGCUGUAUAUCUC,0.23
3,UAACAGGGGGCCACAGCAGGAGCGUUCACGUCGCAGCCCCUGUCAGGUUCUCGUGAGUCUGCGAAUUCUGCUGUAUGUCUC,0.67
4,UAACAGGGGGCCACAGCAGGAGCGUUCACGUCGCGGCCCCUGUCAGAUUCUGGUGAAUCUGCGAAUUCUACUGCAUAUCUC,1.11
5,UAACAGGGGGCCACAGCAGGAGCGUUCGCGUCGCAGCCCCUGUCAGAUUCUGGUGAAUCUGCGAAUUCCGCUGUAUAUCUC,0.28
6,UAACAGGGGGCCACAGCAGGAGCGUUCUCGACGCAGCCCCUGUCAUAUUCUGGCGAAACUGCGAAUUCUGCUGUAUAUCUC,0.05
7,UAACAGGGGGCCACAGCAGGAGAGUACACGUCGCAGCCCCUGUCAGAUUCUGGUGAAUCUGCGAAUUCCGCUGUAGAUCUC,0.04
8,UAACAGGGGGCCACAGCAGGAGAGUUCACGUCGCAGCCCCUGUCAGAUUCUGGUGAACCUGCGAAUUCUGCUGUAUAUCUC,0.18
9,UAACAGGGGGCCACAGCAGGAGCGUUCACGUCGCUGCCCCUGUCAGAUUCUGGUGAGUCUGCGAAUUCUGCUGUAUAUCUC,0.33
10,UAACAGGGGGCCACAGCAGGAGCGUUCGCGUCGCAGCCCCUGUCAGAUUCUGGUGAAUCUGCGAAUUCUGCUGCAUAUCUC,0.54
11,UAACAGGGGGCCACAGCAGGAGCGUUCACGUCGCAGCCCCUGUCAGAUUCUGGUGAAUCUGCGGAUUCUGCUGUAUGUCUC,0.44
12,UAACAGGGGGCCACAGCAGGAGCGUUCAUGUCGCAGCCCCUGUCAGAUCCUGGUGAAUCUGGGAAUCCUGCCGUGUAUCUC,0.08
13,UAACAGGGGGCCACAGCAGGAGCGUUCACGUCGCGGCCCCUGUCGGACUCUGGUGAAUCUGCGAAUUCUGCUGUAUAUCUC,0.5
14,UAACAGGGGGCCACAGCAGGAGCGUUCACGUCGCGGCCCCUGACAGAUUCUGGUGAAUCUGCGAAUUCUGCUGUAUAUCUC,1.3
15,UAACAGGGGGCCACAGCAGGAGCGUUCAAGUCGCAGCCCCUGCCAGAUUCCGGUGAAUCUGCGAAUUCUGCUGUAUAUCUC,0.29
16,UAACAGGGGGCCACAGCAGGAGCGUUCACGUCGCAGCCCCUGUCAGAUUCUGGUGGAUCUGCGAAUUCAGCUGUAUAUCUC,0.23
17,UAACAGGGGGCCACAGCAGGAGCGUUCAUUUCGCAGCCCCUGUCAGAUUCAGGUGAAUCUGCGAAUUCAGCAGUAUACCUC,0.13
